Source: PubChem BioAssay AID485294 (National Center for Advancing Translational Sciences (NCATS), 2010)
Among all 370,000 compounds or so, about 150 (0.041%) were called active. The inconclusive results got no clear call from the source; some entries with a clear call stand among them for comparison. Calls come from the whole dose curve; as a rule, active = well fitted inhibition curve with a large enough effect; inconclusive = small, poorly fitted or top-dose-only effect; inactive = flat fitted curve, though single readings scatter. No potency is given beside an inconclusive call; the fits are too rough.

Molecular target: Beta-lactamase (Escherichia coli (strain K12)) (UniProt P00811)
Test: qHTS Inhibitors of AmpC Beta-Lactamase (assay with detergent); note: nearly all actives have a fitted effect of over 25% in size
Conditions: AmpC hydrolysis of nitrocefin, absorbance 480 nm, 0.01% Triton; series mostly up to 114 µM
Outline: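 AmpC (5.3 nM in the dispensed reagent) in 20 mM phosphate pH 7.0 with 0.01% (detergent screen) or 0.0001% Triton X-100 was preincubated with compounds for 15 min at room temperature. Nitrocefin was then added from an 800 uM solution, and hydrolysis was followed at 480 nm.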
Potency is the fitted concentration of half-maximal effect; tags give direction and shape of the fitted curve.

Sequence of UniProt P00811 (P00811 whole entry, looked up): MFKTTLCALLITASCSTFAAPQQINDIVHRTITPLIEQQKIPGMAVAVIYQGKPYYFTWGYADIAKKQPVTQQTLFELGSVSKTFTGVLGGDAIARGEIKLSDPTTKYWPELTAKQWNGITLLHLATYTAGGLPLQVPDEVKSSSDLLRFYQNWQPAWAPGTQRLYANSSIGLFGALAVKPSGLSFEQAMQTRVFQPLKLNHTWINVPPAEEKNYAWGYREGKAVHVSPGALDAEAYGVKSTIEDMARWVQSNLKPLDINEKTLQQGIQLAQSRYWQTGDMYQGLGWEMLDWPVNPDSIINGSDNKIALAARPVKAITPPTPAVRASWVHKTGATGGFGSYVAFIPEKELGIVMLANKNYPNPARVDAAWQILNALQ

Compound | Potency
COc1ccc(C2C3=C(CC(C)(C)CC3=O)Oc3ncn(CCO)c(=N)c32)cc1OC (centres undefined) | inconclusive [inhibitor, single point]
CN(CC(=O)Nc1ccc(Cl)c(C(F)(F)F)c1)C(=O)C1CC(=O)N(C2CCCC2)C1 (centres undefined) | inconclusive [inhibitor, partial curve, poor fit]
c1ccc2c(c1)nc(NCC1CCCO1)c1nnnn12 (centres undefined) | inactive
Cc1ccc(NC(=O)C2CCN(S(=O)(=O)c3ccc4c(c3)C(C)(C)C(=O)N4C)CC2)c(C)c1 | inconclusive [inhibitor, full curve, poor fit]
O=C(NCC1CCCN1S(=O)(=O)c1cccs1)C(=O)Nc1ccccc1 (centres undefined) | inconclusive [inhibitor, full curve, poor fit]
O=C(NC(=S)Nc1ccccc1Cl)c1cncc(Br)c1 | inactive
CC(C)(C)NC(=O)N1CCCN(c2ccc(C(F)(F)F)cn2)CC1 | inactive
COC(=O)c1[nH]c(C)c(/C(O)=C2\C(=O)C(=O)N(CCN(C)C)C2c2cccc(OC)c2OC)c1C (centres undefined) | inconclusive [inhibitor, partial curve]
CCOC(=O)c1c(NC(=O)C(C)OC(=O)C2=COCCO2)sc2c1CCCC2 (centres undefined) | inactive
COc1ccc(NC(=O)CSc2nnc(-c3ccccn3)n2N)cc1Cl | inactive
COC(=O)[C@@]12CCCCN1[C@H](c1ccc(-c3ccc(C(C)=O)cc3)cc1)[C@@H]1C(=O)N(C)C(=O)[C@@H]12 | inconclusive [inhibitor, single point]
COCCCNC(=O)c1ccc(CN2CCc3ccccc3C2)cc1 | inactive
N=C1C(c2nc3ccccc3s2)=C(O)CN1Cc1ccccc1 | inactive
COc1ccc(CCNC(=O)Cc2c(C)c3cc4c(C)coc4cc3oc2=O)cc1OC | inactive
Cc1ccccc1-c1nc2c(s1)CCc1onc(-c3cccc([N+](=O)[O-])c3)c1-2 | inconclusive [inhibitor, single point]
CN1CCN(C(CNS(=O)(=O)c2ccc(Br)cc2)c2ccc3c(c2)OCO3)CC1 (centres undefined) | inconclusive [inhibitor, partial curve, poor fit]
CN1C(=O)CC(N2CCN(CC(N)=O)CC2)C1=O (centres undefined) | inconclusive [inhibitor, single point]
CC(OC(=O)Cn1cnc2c1c(=O)n(C)c(=O)n2C)C(=O)NC1(C#N)CCCCC1 (centres undefined) | inconclusive [inhibitor, partial curve, poor fit]
CC(C)CC(c1nnnn1Cc1cccs1)N1CCN(c2nc3ccccc3s2)CC1 (centres undefined) | inactive
Nc1nc(-c2ccccc2)[nH]c(=O)c1N | inactive
Cc1nc2ccccc2c(=O)n1NC(=O)c1c(O)c2ccccc2n(C)c1=O | inconclusive [inhibitor, single point]
Cc1ccc(S[C@@H](CCN2CC[C@H](O)CCC2=O)c2ccccc2)cc1 | inconclusive [inhibitor, full curve, poor fit]
Cc1ccc(CN(C)C(=O)c2cccc(S(=O)(=O)N3CCc4ccccc4C3)c2)o1 | inactive

Compound | Potency
C=CCNC(=O)CN1C(=O)c2cccc3cccc1c23 | inconclusive [inhibitor, full curve, poor fit]
COC(=O)C(Cc1ccccc1)NC(=O)CCNC(=O)c1ccco1 (centres undefined) | inconclusive [inhibitor, partial curve]
O=C(C[n+]1cc(Br)cc2ccccc21)c1ccccc1 | inactive
CCn1c(Cc2ccccc2)nnc1SCC(=O)c1cccc([N+](=O)[O-])c1 | inconclusive [inhibitor, full curve, poor fit]
Cc1ccc(C(=O)OCC(=O)NCc2ccco2)cc1 | inconclusive [inhibitor, full curve, poor fit]
Cc1ccc(NC(=O)NCc2ccc3c(c2)OCO3)cc1 | inactive
O=C(CSC1CC(=O)N(CCc2ccccc2)C1=O)Nc1ccc(Br)cc1 (centres undefined) | inconclusive [inhibitor, full curve, poor fit]
CCOCCCNC(=O)c1cc2c(=O)n3cccc(C)c3nc2n1C | inconclusive [inhibitor, full curve]
O=C(CSc1nc(-c2ccco2)cc(C(F)(F)F)n1)N1CCN(c2ccc(Cl)cc2)CC1 | inconclusive [inhibitor, full curve, poor fit]
CCOc1ccc(C(=O)Nc2ccc(N3CCN(C)CC3)cc2)cc1 | inconclusive [inhibitor, full curve, poor fit]
CN1CCN(CC(=O)Nc2nc(-c3ccccc3)cs2)CC1 | inactive
CCC(C)N(C(=O)COC(=O)c1cc([N+](=O)[O-])ccc1N1CCOCC1)C1CCS(=O)(=O)C1 (centres undefined) | inconclusive [inhibitor, partial curve]
COc1ccc(/C=N/OCC(=O)N(Cc2ccc(OC)cc2)c2ccccc2C(=O)O)cc1 | inconclusive [inhibitor, partial curve, poor fit]
O=C(NCc1ccccc1OC(F)(F)F)C1CCC(=O)N(Cc2cccc(F)c2)C1 (centres undefined) | inconclusive [inhibitor, full curve]
COc1cccc(-c2nc(CS(=O)CC(=O)NCCc3ccc(C)cc3)c(C)o2)c1 (centres undefined) | inactive
Fc1ccc(-n2c(=S)[nH]c3cccnc32)cc1 | inconclusive [inhibitor, full curve]
Cc1sc(=NC(=O)c2ccco2)n(C)c1-c1ccccc1 | inconclusive [inhibitor, partial curve, poor fit]
CN(CCCNC(=O)Cn1cc2c(n1)CCCC2)C1CCCCC1 | inactive
COc1cccc(CNC(=O)CN2C(=O)N(c3cccc(Cl)c3)S(=O)(=O)c3ccccc32)c1OC | inactive
O=C(NCCc1ccc(F)cc1)C1CCCO1 (centres undefined) | inconclusive [inhibitor, partial curve, poor fit]
O=C(NP(=O)(N1CCOCC1)N1CCOCC1)C1=C(N2CCOCC2)/C(=C\c2ccccc2)CC1 | inactive
COc1ccccc1CNC(=O)CSc1ccccc1 | inconclusive [inhibitor, full curve, poor fit]
COc1ccc(NC(=O)CN(C)CC(=O)NCC2CCCCC2)cc1 | inconclusive [inhibitor, full curve]

Compound | Potency
COc1ccc(CN2CCN(c3ccccn3)CC2)cc1OCc1ccccc1 | inconclusive [inhibitor, full curve]
CC(=O)Nc1ccc(Oc2nc(C)cc(C)n2)cc1 | inconclusive [inhibitor, single point]
Cc1ccnc(NC(=O)CCC(=O)N(CC(=O)NCC2CCCO2)Cc2ccc(F)cc2)c1 (centres undefined) | inconclusive [inhibitor, partial curve]
COc1ccccc1-c1ccc(SCC(=O)NC2CCCC2)nn1 | inconclusive [inhibitor, partial curve, poor fit]
Oc1ccc(COCc2ccc(F)cc2)c2cccnc12 | inconclusive [inhibitor, full curve, poor fit]
CCOc1ccc2nc(SCC(=O)NCc3ccco3)sc2c1 | inactive
CC(C)(C)CC(C)(C)c1ccc(OCC(=O)Nc2ccc(S(=O)(=O)Nc3ncccn3)cc2)cc1 | inactive
CCN1C(=O)/C(=C/C2=Cc3ccccc3OC2C)SC1=S (centres undefined) | inactive
Cc1cc(NC(=O)COC(=O)C2CCCN2C(=O)c2cccs2)no1 (centres undefined) | inactive
Cc1ccc2nc(Cl)c3cc(C(=O)NCCCN(C)Cc4ccccc4)sc3c2c1 | inactive
O=C1c2ccccc2C(Nc2ccc(S(=O)(=O)N3CCOCC3)cc2)N1c1ccccn1 (centres undefined) | inconclusive [inhibitor, full curve, poor fit]
Cc1ccc(Cl)c(OCC(=O)NCc2ccco2)c1 | inconclusive [inhibitor, partial curve, poor fit]
NS(=O)(=O)c1ccc(-n2ncc3c(=O)[nH]c(SCC(=O)Nc4nccs4)nc32)cc1 | inactive
C=CCN1C(=O)c2ccc(C(=O)N3CCN(c4ccccc4OC)CC3)cc2C1=O | inconclusive [inhibitor, full curve, poor fit]
COc1ccc(C)cc1S(=O)(=O)Nc1cccc(SC)c1 | inconclusive [inhibitor, full curve, poor fit]
COc1ccccc1CCC(=O)Nc1ccc2c(c1)CN(Cc1ccc(CO)o1)CC2 | inconclusive [inhibitor, partial curve, poor fit]
CSc1nc2sc(-c3ccccc3)cc2c(=O)n1N | inconclusive [inhibitor, partial curve, poor fit]
CC(=O)c1cccc(NC(=O)Cn2nc(C(F)(F)F)c3c2CCC3)c1 | inactive
CCOC(=O)C1CCN(C(=O)/C=C/c2ccccc2)CC1 | inconclusive [inhibitor, partial curve, poor fit]
COc1ccc(CC(=O)Nc2ccc(-c3noc(-c4cccc(OC)c4)n3)cc2)cc1 | inactive
O=C(c1cc2n(n1)C(C(F)(F)F)CC(c1ccco1)N2)N1CCc2ccccc2C1 (centres undefined) | inactive
CCOC(CCn1c(SCc2cccc([N+](=O)[O-])c2)nc2ccccc2c1=O)OCC | inconclusive [inhibitor, full curve, poor fit]
CCOC(=O)N/N=C/c1cn(CCCOc2ccc(C)cc2)c2ccccc12 | inactive
